# In the supplement of paper PMC9513381:
# Recombinant human monoclonal antibodies (heavy:light variable regions). ELISA EC50 on the named antigen, from 10 µg/ml down; IC50 / IC90 against spike pseudovirus on 293T-ACE2 cells, 48 h; lower = stronger. Calls: IC50 above 1,000 ng/ml = non-neutralizing; EC50 above 1,000 ng/ml = non-binder. The source prints 1000 for neutralization that was not reached; it is given as >1000 ng/ml. Only binders of the Wuhan-Hu-1 domain have neutralization values.
# B1: B2062 (protein)
# chain 1: QVQLQESGPGLVKPSETLSVTCAVSGYSISSSYYWGWIRQSPGRGLEWIGSIYHSGTTYYNPSVKSRLTISVDTSTNQFSLTLRSVTAADTAMYYCASNSGQVVIGAFDIWGRGTMVTVSS
# chain 2: DIQMTQSPSSLSASVGDRVTVTCRASQSIDSYLNWYQQKPGKAPKVLIYAASTLQSGVPSRFSGSGSGTEFTLTISSLQPEDFATYYCQQTYSTPSYTFGQGTKLEIK
# B2: B2007 (protein)
# chain 1: EVQLVESGGDLVQPGESLRLSCSDSGLTFRTHGFYWVRQAPGKRPEYISGISNNGDATYYADSVKGRFTVSRDNSKNTLFLQMNSLSVDDTAVYYCVKGRVDYWGQGTLVTVSS
# chain 2: DIQMTQSPSSLSASVGDRVTITCQASQDISNSLNWYQQKPGRAPKLLIYDASHLQTGVPSRFSGSGSGTNFTFTISGLQPEDIATYYCQEYYDSITFGQGTRLEIK
# B3: B2057 (protein)
# chain 1: EVQLVESGGGLAKPGGSLRLSCAASGFSFSDAWMNWVRQGPGKGLEWVGRIKTKIDGGTIDYAASVKGRFTISRDDSKNTLYLQMSRLKTDDTAVYYCSTDEVSSGYDFPMDVWGQGTTVTVSS
# chain 2: DIQMTQSPSTLSASVGDRVTITCRASQSVSVWLAWYQQKPGKAPNLLIYKASNLQSGVPSRFSGSGSGTEFTLTISSLQPDDFATYYCLQYNTLWTFGQGTKVEIK
# B4: B2115 (protein)
# chain 1: QVQLVQSGTEVKKPGASVKVSCKVSGYTLTELSIHWVRQAPGKGLEWMGGFDPEDGETIFAQKFQGRVTMTEDTSTDTAYMDLSSLRSEDTAIYYCATNLRGHLLEPAAKGNSRAEYFQHWGQGTLVTVSS
# chain 2: EIVLTQSPGTLSLSPGERAALSCRASQSVTRSYLAWYQQKPGQAPRLLIFDASSRATGIPDRFSGSASGTDFTLTISRLEPEDFAVYYCQLYGTSSTFGQGTKVEIK
# B5: B2005 (protein)
# chain 1: EVQLVESGGGLVQPGRSLRLSCAAGGFTFDDYAMHWVRQGPGKGLEWVSGIAWNSGTLGYAASVQGRFIISRDNAKKSVYLHMNSLRTEDTAFYFCVKDRTNGDPQGDAFDMWGQGTMVTVSS
# chain 2: SYELTQPPSVSGAPGQTARITCGGNNIGSKSVHWYQQKPGQAPVLVVYDDNDRPSGIPERFSGSNSGNRATLTISRVEAEDEADYYCQVWDSSSEHVLFGGGTKLTVL
# B6: B2010 (protein)
# chain 1: QLVQSGPEIKKPGTSVKVSCKASGFTFSNSAVQWVRQARGQHLEWIGWIVVGSGDPNYAQKFQERVTLTRDMSTGTAYMELSSLRSEDTAFYYCATNNCSRTICSDGFDIWGQGTMVTVSS
# chain 2: DIQLTQSPSSLSASVGDRVTISCRASQTINNYLNWYQQKPGKAPKLLIYAASTLHRGVPSRFSGSGSGTDFTLTISSLQPEDFATYYCQQSYSSPPLTFGGGTKVEIK
# B7: B2012 (protein)
# chain 1: QLVQSGPEIKKPGTSVKVSCKASGFTFSNSAVQWVRQARGQHLEWIGWIVVGSGDPNYAQKFQERVTLTRDMSTGTAYMELSSLRSEDTAFYYCATNNCSRTICSDGFDIWGQGTMVTVSS
# chain 2: IRMTQSPSSLSASVGDRVTITCQASQDINNYLNWYQQKPGRAPKLLIYDASNLETGVPSRFSGSGSGTEFTFTISSLQPEDIATYYCQQYDNLPITFGQGTRLEIK
# B8: B2100 (protein)
# chain 1: QVQLVESGGGLVQPSQSLSITCTVSGFSLTTYGVHWVRQSPGKGLEWLGVKWSGGSTDYNAAFISRLSITKDNSKSQVFFKINSLQADDTAIYYCARGDYDPYYYAMDYWGQGTSVTVSS
# chain 2: QSVLTQPPSVSGAPGQRVTISCTGSSSNIGAGSDVHWYQQFPGTAPKLLIYGSTHRPSGVPDRFSGSKSGTSASLAITGLQAEDEADYYCQSYDSSLSAPYVFGTGTKVTVL
# B9: B2114 (protein)
# chain 1: EVQLVESGGGLVQPGGSLRLSCAASGFIVSDSYMTWVRQAPGKGLEWVSLIHSGGSTYYADSVKGRFTITRHYSTNNLYLQMNSLRVEDTAVYYCARDTAASSGYYYNALDVWGQGTTVTVSS
# chain 2: DIQMTQSPSTLSASVGDRVTITCRASQSISSWLAWYQQKPGKAPKLLISEASILEGGVPSRFRGSGSGTEFTLTINSLQPDDFAIYYCQQYRSYSYTFGQGTKLEIK
# B10: B2099 (protein)
# chain 1: EVQLVESGGDLVHPGESLTLSCAASGFTFSSYSMNWVRQAPGKGLEWVSYVSSSATTIYYAESVKGRFTISRDNAKNSLYLQMNSLRDEDMAVYYCARDRTPFYDAWNGWGPLDYWGQGTWVTVSS
# chain 2: DIQMTQSPSTLSASVGDRVTITCRASQSISSWLAWYQQKPGKAPKLLISDASNLESGVPSRFSGSGSGTEFTLSISSLQPDDFATYYCQQYNSYRYTFGQGTKLEIK
# B11: B2134 (protein)
# chain 1: QLVQSGPEVKKPGTSVKVSCKVPRHTFSSSAVHWVRQARGQRLEWIGWIVVGRGTTNYAQKFQERVTITRDMSASTVNMELSSLTSEDTAVYFCAAGDGDYGHYGMDVWGQGTTVTVSS
# chain 2: QSVLTQPPSVSGAPGQRVTISCTGSNSNIGAGYDVHWYQQLPGTAPKLLIHGNSNRPSGVPDRFSGSKSGTSASLAITGLQPEDEADYYCQSYDSSLSGSVFGGGTQLTVL
# B12: B1049 (protein)
# chain 1: QVQLQESGPGLVKPSQTLSLTCTVSGGSISSGPYYWSWIRQHPGKGLEWIGYIYYSGSTYYNPSLKSRVTISVDTSKKQFSLNLNSVTAADTAVYYCARVWQYYDSTGSFDYWGQGTLVTVSS
# chain 2: QSVLTQSPSASGTPGQRVTISCSGSSSNIGSNTVNWYQQVPGTAPKLLIYSDNQRPSGVPDRFSASKSGTSASLAISGLQSEDEADYYCAAWDDGLNGVLFGGGTKLTVL
# B13: B1050 (protein)
# chain 1: QVQLQQWGAGLLKPSETLSLTCGVFRASLIDFYWTWIRQSPGKGPEWIGGIYHNGSADSSPSMKSRVTISIDTSKNQFSLQLTSVTAADNGVYYCARGLGSWLQMPVAFWGQGNLVTVSS
# chain 2: QVQLQQWGAGLLKPSETLSLTCGVFRASLIDFYWTWIRQSPGKGPEWIGGIYHNGSADSSPSMKSRVTISIDTSKNQFSLQLTSVTAADNGVYYCARGLGSWLQMPVAFWGQGNLVTVSS
# B14: B2045 (protein)
# chain 1: EVQLVESGGGLIRPGGSLRLSCAASGFSVSNNYMSWVRQAPGKGLEWVSVIYSGGTTYYADSVKGRFNISRDNSKNTVYLQMNSLRAEDTAVYYCAREGDVEGYYDFWSGYSRDRYYFDYWGQGALVTVSS
# chain 2: DIQLTQSPSSLSASVGDRVTITCRASQSVGRHLSWYQQKSGKAPKLLIYDASTLQSGVPSRFSGSGSGTDFSLTISNLRPEDFATYYCQQSYETPPWTFGQGTKVEIK
# B15: B2133 (protein)
# chain 1: QVQLVQSGAEVQKPGSSVKVSCKTSGGTFGSYGISWVRQASGQGLEWMGGIIPVFGAVNYAQKFQGRVTITADKSTSTVYMELSSLRFEDTAVYYCGRAVGHEWELLSFGRDAYGMNVWGQGTTVTVSS
# chain 2: EIVLTQSPATLSLSPGERATLSCRASQSVSRYLAWYQQKPGQAPRLLIYGASERATGIPARFSGSGSGTDFTLTISSLEPEDFAVYYCQQRSIRPSFGGGTKVEIK
# B16: B2135 (protein)
# chain 1: QVQLVESGGGVVQPGRSLRLSCAASGFTFSSYGMHWVRQAPGKGLEWVAVIWYDGSNKYYADSVKGRFTISRDNSKNTLYLQMNSLRAEDTAVYYCASNEGGRVAGRGMNYYYYGMDVWGQGTTVTVSS
# chain 2: SYELTQPPSVSVAPGQTARITCGGNNIGSKNVHWYQQKPGQAPVLVVHDDSDRPSGIPERFSGSNSGNTATLTISRVEAGDEAEYYCQVWGSSSDHPYVFGTGTKVTVL
# Biological target: SARS-CoV-2 Delta (B.1.617.2) spike RBD
# Experiment: ELISA binding EC50; higher = weaker binding; ELISA of recombinant human antibody on coated antigen, from 10 µg/ml in fourfold dilutions; four-parameter fit.
row,Binder,ELISA binding EC50
1,B1,> 1 mg/L
2,B2,> 1 mg/L
3,B3,0.00667 mg/L
4,B4,> 1 mg/L
5,B5,> 1 mg/L
6,B6,> 1 mg/L
7,B7,> 1 mg/L
8,B8,> 1 mg/L
9,B9,> 1 mg/L
10,B10,> 1 mg/L
11,B11,> 1 mg/L
12,B12,> 1 mg/L
13,B13,> 1 mg/L
14,B14,> 1 mg/L
15,B15,> 1 mg/L
16,B16,> 1 mg/L

# Biological target: SARS-CoV-2 Omicron BA.1 spike protein
# Experiment: as above
row,Binder,ELISA binding EC50
1,B1,> 1 mg/L
2,B2,> 1 mg/L
3,B3,0.00732 mg/L
4,B4,> 1 mg/L
5,B5,0.0329 mg/L
6,B6,> 1 mg/L
7,B7,> 1 mg/L
8,B8,> 1 mg/L
9,B9,> 1 mg/L
10,B10,> 1 mg/L
11,B11,> 1 mg/L
12,B12,> 1 mg/L
13,B13,> 1 mg/L
14,B14,> 1 mg/L
15,B15,> 1 mg/L
16,B16,> 1 mg/L

# Biological target: SARS-CoV-2 Wuhan-Hu-1 spike receptor-binding domain
# Experiment: as above
row,Binder,ELISA binding EC50
1,B1,> 1 mg/L
2,B2,> 1 mg/L
3,B3,0.00199 mg/L
4,B4,> 1 mg/L
5,B5,0.00303 mg/L
6,B6,> 1 mg/L
7,B7,> 1 mg/L
8,B8,> 1 mg/L
9,B9,> 1 mg/L
10,B10,> 1 mg/L
11,B11,> 1 mg/L
12,B12,> 1 mg/L
13,B13,> 1 mg/L
14,B14,> 1 mg/L
15,B15,> 1 mg/L
16,B16,> 1 mg/L

# Biological target: SARS-CoV-2 Wuhan-Hu-1 spike pseudovirus
# Experiment: pseudovirus neutralization IC50; higher = weaker neutralization
# Experimental: (§1)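 Single-round luciferase reporter pseudovirus mixed with antibody dilutions and put on 293T-ACE2 cells for 48 h; signal relative to no-antibody wells, four-parameter fit.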
row,Binder,pseudovirus neutralization IC50
1,B3,0.0227 mg/L
2,B5,0.0135 mg/L

# Biological target: SARS-CoV-2 Wuhan-Hu-1 spike pseudovirus
# Experiment: pseudovirus neutralization IC90; higher = weaker neutralization
# Experimental: as §1
row,Binder,pseudovirus neutralization IC90
1,B3,0.476 mg/L
2,B5,0.23 mg/L
